{"source": "PubChem BioAssay AID651820", "about": "(National Center for Advancing Translational Sciences (NCATS), 2012)", "note": "Hit rate of the full screen: of about 340,000 compounds, about 12,000 (3.5%) were called active. Inconclusive means that the source gave no clear call. Such entries were picked first, then a sample of the others. Calls come from the whole dose curve; as a rule, active = well fitted inhibition curve with a large enough effect; inconclusive = small, poorly fitted or top-dose-only effect, or another doubt; inactive = no such curve, though single readings can be large or run the other way. Potencies of inconclusive entries are left out as doubtful fits. % is set by controls: 0 for no effect and ±100 for the full control effect; potency is the fitted concentration of half-maximal effect; tags give direction and shape of the fitted curve."}
{"experiment": "qHTS Assay for Inhibitors of Hepatitis C Virus (HCV)", "conditions": "Huh7.5.1 HCVcc-Cre (HCVcc is cell-culture hepatitis C virus) infection, luciferase reporter, 44 h; activity change, negative = inhibition: at 41.8 µM (top of the series) unless noted", "in_short": "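A cell-based infection assay in which seeded cells (1,000 per well) receive test compound after 4 h, are inoculated with HCVcc-Cre at approximately 0.5 moi, and are incubated 44 h before luminescence detection.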"}
{"molecule": "O=C1C(Nc2ccccc2)=C(N2CCCCC2)C(=O)c2ccccc21", "Potency": "active: 10 µM"}
{"molecule": "Cc1ccc(O)c(Cn2nnc3ccccc32)c1", "Potency": "inconclusive [inhibitor, single point]"}
{"molecule": "CCC(=O)c1cc2c(cc1NC(=O)C(C)C)OCCO2", "Potency": "active: 6.31 µM"}
{"molecule": "CC1=CS(=O)(=O)CC1Sc1ncn[nH]1", "note": "(stereo not drawn)", "Potency": "inconclusive [inhibitor, single point]"}
{"molecule": "CC(=O)c1cccc(Nc2nc(-c3cccc([N+](=O)[O-])c3)cs2)c1", "Potency": "active: 2.24 µM"}
{"molecule": "Cc1cccc(N2CCN(C(=O)CCCn3c(=O)c4cccn4c4cccnc43)CC2)c1C", "Potency": "inconclusive [inhibitor, single point]"}
{"molecule": "CC(Oc1ccccc1Cl)C(=O)Nc1ccc(S(=O)(=O)Nc2nccs2)cc1", "note": "(stereo not drawn)", "Potency": "inactive"}
{"molecule": "Cc1ccc(S(=O)(=O)N2CCCCC2)cc1NC(=O)Cn1c(=O)cnc2ccccc21", "activity change, negative = inhibition": "inconclusive: -46.4% [inhibitor]"}
{"molecule": "COc1cc(NCCCC(C)N)c2ncccc2c1", "note": "(stereo not drawn)", "Potency": "inconclusive [inhibitor, full curve]"}
{"molecule": "Cc1cc(N2CCCC2)n2nc(C)nc2n1", "Potency": "inactive"}
{"molecule": "CN(C)CC(O)COC(c1ccc(Cl)cc1)c1ccc(Cl)cc1", "note": "(stereo not drawn)", "Potency": "active: 3.16 µM"}
{"molecule": "Cc1ccn2c(=O)nc(SCC(=O)N3N=C(c4cccs4)CC3c3ccc(F)cc3)nc2c1", "note": "(stereo not drawn)", "Potency": "inconclusive [inhibitor, partial curve, poor fit]"}
{"molecule": "Cc1cccc(/C(N)=N/OC(=O)CCCc2ccccc2)c1", "Potency": "inactive"}
{"molecule": "O=C(Cc1cccc(NC(=O)C2CCCN(C(=O)C3CCC3)C2)c1)Nc1cccc(C(=O)N2CCCC2)c1", "note": "(stereo not drawn)", "Potency": "inconclusive [inhibitor, partial curve, poor fit]"}
{"molecule": "CC(=O)Nc1ccccc1-c1nc2ccc(C(=O)N3CCN(c4cccc(C)c4)C(C)C3)cc2[nH]c1=O", "note": "(stereo not drawn)", "Potency": "inconclusive [inhibitor, single point]"}
{"molecule": "CC1=C(C)CC(C(=O)NCCCN2CCCC2=O)C(C(=O)O)C1", "note": "(stereo not drawn)", "Potency": "inactive"}
{"molecule": "COc1ccc(CC(=O)Nc2ccc(C)c(S(=O)(=O)N3CCCCCC3)c2)cc1", "Potency": "inconclusive [inhibitor, partial curve]"}
{"molecule": "Cc1cccc2sc(N(CCN(C)C)C(=O)C3CCN(S(=O)(=O)c4cccs4)CC3)nc12", "Potency": "inconclusive [inhibitor, single point]"}
{"molecule": "COc1ccccc1N=Nc1ccc(N)c(C)c1", "Potency": "inconclusive [inhibitor, partial curve]"}
{"molecule": "COC(=O)c1c(-c2ccccc2)csc1NC1=NS(=O)(=O)c2ccccc21", "Potency": "inactive"}
{"molecule": "COCCCN=C1NN=C(c2cc(C)n(-c3ccccc3F)c2C)CS1", "Potency": "inconclusive [inhibitor, partial curve]"}
{"molecule": "COc1cc(Nc2c3ccccc3nc3ccccc23)cc(OC)c1OC", "Potency": "inconclusive [inhibitor, partial curve]"}
{"molecule": "CCOC(=O)c1cnc(SCC(=O)Nc2ccc(NC(=O)CC)c(OC)c2)nc1N", "Potency": "inconclusive [inhibitor, partial curve]"}
{"molecule": "O=C(CCN1CCN(c2ccccc2)CC1)N/N=C/c1ccccc1O", "Potency": "inconclusive [inhibitor, partial curve]"}
{"molecule": "CCCCC[n+]1ccn(C2=C([O-])c3ccccc3C(=O)/C2=N\\S(=O)(=O)c2ccc(Br)cc2)c1", "Potency": "inconclusive [inhibitor, single point]"}
{"molecule": "CCCCn1c(N)c(N(CCC(C)C)C(=O)CSc2nnc(Nc3ccccc3)s2)c(=O)[nH]c1=O", "Potency": "inconclusive [inhibitor, single point]"}
{"molecule": "O=C(COc1ccc(Br)cc1Cl)NC(=O)Nc1ccc2c(c1)OCCO2", "Potency": "inactive"}
{"molecule": "COc1cccc(CN(C)CC(O)COC(c2ccccc2)c2ccccc2C)c1", "note": "(stereo not drawn)", "Potency": "inconclusive [inhibitor, partial curve]"}
{"molecule": "O=C(/C=C\\c1ccco1)Nc1nc(-c2ccc3ccccc3c2)cs1", "Potency": "inconclusive [inhibitor, single point]"}
{"molecule": "COc1ccc(C2(c3ccc(OC)cc3)NC(=O)N(CC(=O)Nc3cc(C)on3)C2=O)cc1", "Potency": "inconclusive [inhibitor, single point]"}
{"molecule": "Cc1ccc(C(=O)CSc2nnc(COc3cc(C)cc(C)c3)o2)cc1", "Potency": "inconclusive [inhibitor, partial curve]"}
{"molecule": "Cn1c(SCc2ccccc2Cl)nc2c1c(=O)[nH]c(=O)n2C", "Potency": "inactive"}
{"molecule": "S=c1[nH]c2cc(-c3ccccc3)ccc2o1", "Potency": "inactive"}
{"molecule": "COc1cc(CNn2nnnc2N)cc(Br)c1OCC(=O)NC(C)(C)C", "Potency": "inactive"}
{"molecule": "COc1ccccc1NC(=S)N(CCCN(C)C)Cc1cc2cc3c(cc2[nH]c1=O)OCO3", "Potency": "inactive"}
{"molecule": "COc1ccccc1-c1nc(SCC(=O)NCc2ccco2)c2c(=O)n(C)c(=O)n(C)c2n1", "Potency": "inconclusive [inhibitor, full curve]"}
{"molecule": "COc1ccc(C=C(c2nc3ccccc3s2)c2nc3ccccc3s2)cc1O", "Potency": "inconclusive [inhibitor, full curve, poor fit]"}
{"molecule": "c1ccc(Cn2nnc3c(Nc4ccc5c(c4)OCO5)nc(C4CC4)nc32)cc1", "Potency": "inconclusive [inhibitor, partial curve]"}
{"molecule": "CC(NCC(=O)Nc1cc(S(=O)(=O)N2CCOCC2)ccc1Cl)c1ccc(Cl)cc1Cl", "note": "(stereo not drawn)", "Potency": "inconclusive [inhibitor, single point]"}
{"molecule": "CC(C)Cn1nc(NC(=O)c2ccco2)c2cc3ccccc3nc21", "Potency": "inconclusive [inhibitor, single point]"}
{"molecule": "COc1ccc(NC(=O)c2ccc(OC(F)F)cc2)cc1Cl", "Potency": "inconclusive [inhibitor, single point]"}
{"molecule": "COc1ccc(C2c3[nH]c4ccccc4c3CCN2Cc2cccn2-c2ncccn2)cc1C", "note": "(stereo not drawn)", "Potency": "inconclusive [inhibitor, single point]"}
{"molecule": "Cc1ccc(CN(C(=O)COc2cccc(C)c2C)C2CCS(=O)(=O)C2)o1", "note": "(stereo not drawn)", "Potency": "inactive"}
{"molecule": "CC(=O)Nc1ccccc1-c1nc2cc(C#N)c(C#N)cc2[nH]c1=O", "Potency": "inconclusive [inhibitor, single point]"}
{"molecule": "CCCS(=O)(=O)N1CCN(Cc2ccc(OCc3ccccc3)c(OC)c2)CC1", "Potency": "active: 10 µM"}
{"molecule": "CCOC(=O)c1cc2nc(-c3ccccc3)cc(C)n2n1", "Potency": "inconclusive [inhibitor, single point]"}
{"molecule": "O=C(NCCN1CCCCCC1)c1ccc(CS(=O)(=O)c2ccc(Br)cc2)o1", "Potency": "inconclusive [inhibitor, single point]"}
{"molecule": "COc1ccc(C(=O)CSc2nnc(Cc3ccccc3)o2)cc1", "Potency": "inconclusive [inhibitor, single point]"}
{"molecule": "C=CCn1c(=S)[nH]c2scc(-c3ccc(C)o3)c2c1=O", "Potency": "inactive"}
{"molecule": "Cc1cc2c(NC(=O)CCCC(=O)O)cccc2nn1", "Potency": "inactive"}
{"molecule": "COc1ccc(OCc2cc(C(=O)N3CCCCCC3)no2)c(Cl)c1", "Potency": "inconclusive [inhibitor, single point]"}
{"molecule": "CSc1ccccc1NC(=O)CN(C)CC(=O)Nc1cccc(Br)c1", "Potency": "inconclusive [inhibitor, full curve, poor fit]"}
{"molecule": "COc1ccc(NC(=O)/C(C#N)=C/c2cc(C)n(-c3ccc(N4CCOCC4)c([N+](=O)[O-])c3)c2C)cc1", "Potency": "inconclusive [inhibitor, full curve]"}
{"molecule": "CCOC(=O)CCSc1nc(C)c2cc(C)c(C)cc2n1", "Potency": "inconclusive [inhibitor, single point]"}
{"molecule": "COc1cc2[nH]c(=S)n(Cc3ccc(C)cc3)c(=O)c2cc1OC", "Potency": "inactive"}
{"molecule": "CCOC(=O)C1CCCN(C(=O)c2ccccc2NS(=O)(=O)c2ccc(F)cc2)C1", "note": "(stereo not drawn)", "Potency": "inactive"}
{"molecule": "CC(C)Oc1ccc(C2CC(=O)N(C)C2=O)cc1", "note": "(stereo not drawn)", "Potency": "inactive"}
{"molecule": "COC(=O)c1nnn(-c2nonc2N)c1CSc1nc2ccccc2s1", "Potency": "inconclusive [inhibitor, partial curve]"}
{"molecule": "COc1ccccc1NC(=S)N1CCN(c2ccccn2)CC1", "Potency": "inconclusive [inhibitor, single point]"}
{"molecule": "Cc1ccc(C(C)C)c(OCc2ccc(C(=O)N/N=C/c3ccc(C(=O)O)cc3)cc2)c1", "Potency": "inactive"}
{"molecule": "Cc1ccc(NC(=S)N2CCC(NC(=O)c3ccco3)CC2)cc1C", "Potency": "inactive"}
{"molecule": "COCCNC(=O)CCCCCNS(=O)(=O)c1ccc(C)cc1", "Potency": "inactive"}
{"molecule": "COC(=O)/C=C/c1ccc2c(c1)OCO2", "Potency": "inactive"}
{"molecule": "CNC(=S)SCCOc1ccccc1C", "Potency": "inactive"}
{"molecule": "COC(=O)/C=C/c1ccccc1S(=O)(=O)N(Cc1ccccc1)Cc1ccco1", "Potency": "inconclusive [inhibitor, partial curve]"}
{"molecule": "CC12CCC(=O)C=C1CCC1C2CCC2(C)C(c3csc(N)n3)CCC12", "note": "(stereo not drawn)", "Potency": "active: 10 µM"}
{"molecule": "Cc1oc(C)c(C(N)=O)c1C(N)=O", "Potency": "inconclusive [inhibitor, single point]"}
{"molecule": "CC(C)(C)c1ccc(C(=O)O/N=C(\\N)c2ccccn2)cc1", "Potency": "inconclusive [inhibitor, single point]"}
{"molecule": "CCc1ccc(-c2cc3c(=O)n(CC(=O)NCCN4CCCCC4C)nc(C)n3n2)cc1", "note": "(stereo not drawn)", "Potency": "active: 11.2 µM"}
{"molecule": "COc1cc(NC(=O)c2cc(Br)cc(C)c2OC)ccc1NC(=O)C(C)C", "Potency": "inconclusive [inhibitor, partial curve]"}
{"molecule": "CC(C)Oc1ccc(/C(O)=C2/C(=O)C(=O)N(CCCn3ccnc3)C2c2cccnc2)cc1", "note": "(stereo not drawn)", "Potency": "inactive"}
{"molecule": "CCCCc1nnc(SCC(=O)Nc2nccs2)n1CC", "Potency": "inactive"}
{"molecule": "CC(=O)c1c(C(C)=O)c(C)n(Cc2ccc3c(c2)OCO3)c1C", "Potency": "inconclusive [inhibitor, single point]"}
